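Compound exposure: 48 hours, 5 concentrations, 96-well plates. GI50 marks 50% less growth. Definition used: TGI = concentration required for complete inhibition of growth.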
These compounds were tested on NCI-H322M lung (assay: inhibition of tumour cell growth, NCI panel, 48 h).
In the case of `CC(=O)c1cccc(Nc2nc3ccc(Cl)cc3c3[nH]c4ccccc4c23)c1`, the TGI is reported as greater than 100 µM. `C[N+]1(C)C/C(=C\c2ccccc2)C(=O)/C(=C/c2ccccc2)C1` was tested, and the TGI was greater than 100 µM. Work on `COc1ccc(-n2cc(-c3cc(OC)c(OC)c(OC)c3)nc2SCc2ccccc2)cc1OC` yielded a GI50 greater than 100 µM and a TGI greater than 100 µM. Work on `COc1ccc(NC(=O)COCCOCCNC[C@@H]2C(=O)O[C@H]3[C@H]2CC/C(COC(=O)OC/C2=C/CC[C@@]4(C)O[C@H]4[C@H]4OC(=O)[C@@H](CN(C)C)[C@@H]4CC2)=C\CC[C@@]2(C)O[C@@H]32)c(O)c1C(N)=O` yielded a GI50 greater than 50 µM and a TGI greater than 50 µM. Compound `C=C1C(=O)O[C@H]2[C@H](OC(C)=O)[C@@H](C)CCC/C(C)=C/CC[C@@]3(C)O[C@@H]3C[C@@H]12` has a TGI of 20.4 µM. Work on `Cn1ccc2c(C(=O)c3ccccc3)cccc2c1=O` yielded a TGI greater than 100 µM. For `NC1=C(c2nc(-c3ccccc3)cs2)C(c2ccc(Br)cc2)c2c(c3ccccc3oc2=O)O1` (stereo unspecified), the GI50 was greater than 150 µg/mL and the TGI was greater than 150 µg/mL. `O=C(c1ccccc1)N1OCCC1Nc1ccc(Br)cc1` (stereo unspecified) was tested, and the TGI was greater than 10 µM. Compound `CCCCN(Cc1ccccc1)C(=NC#N)N(Cc1ccccc1)Cc1ccccc1` has a TGI greater than 100 µM. `N#CC1=C(N)Oc2c(sc3c(Br)cccc23)C1c1ccc(Br)cc1` (stereo unspecified) was tested, and the GI50 was 4.79 µM and the TGI was 24 µM. With `COc1cc(Cl)cc(-c2nn(-c3cccc(NC(=O)Nc4cc(C(F)(F)F)cc(C(F)(F)F)c4)c3)cc2-c2ccncc2)c1` the GI50 was 1.27 µM and the TGI was 11.5 µM. With `CNCCNc1c2c(c(NCCNC)c3[nH]ccc13)C(=O)c1ccccc1C2=O` the GI50 was 0.0779 µM and the TGI was 0.375 µM. `CC(C)(C)OC(=O)NC(CCC(=O)OCc1ccccc1)C(=O)NCCCO` (stereo unspecified) gave a TGI greater than 100 µM. `Cn1c(Cl)cn2c3nc4ccccc4nc3c(=O)c(C#N)c12` gave a TGI greater than 100 µM. With `O=c1nc(NC(c2ccccc2)(c2ccccc2)c2ccccc2)ccn1CCNCCn1ccc(NC(c2ccccc2)(c2ccccc2)c2ccccc2)nc1=O` the TGI was 35.5 µM. `COc1cccc(N2C(=O)/C(=C\c3ccccc3)SC2c2cc(OC)c(OC)c(OC)c2)c1` (stereo unspecified) gave a TGI greater than 100 µM. `COC(=O)C1CCCN1C(=O)[C@@H]1CCCN1C(=O)[C@H](Cc1c[nH]c2ccccc12)NC(=S)Nc1cc(C(F)(F)F)cc(C(F)(F)F)c1` (stereo partly specified) showed a GI50 of 4.38 µM and a TGI of 17.2 µM. `COc1ccc(CC(=O)NCCc2ccc(OC)c(OC)c2)cc1Br` showed a TGI greater than 100 µM. `CNC(=O)CC1NC(=O)c2csc(n2)-c2ccc(-c3nc(C4=NC(C(=O)N5CCCC5C(N)=O)CO4)cs3)nc2-c2csc(n2)-c2csc(n2)C(C(C)C)NC(=O)CNC(=O)c2csc(n2)C(C(C)C)NC(=O)c2nc1sc2C` (stereo unspecified) gave a GI50 greater than 25 µM and a TGI greater than 25 µM. For `C=CC[C@@]1([C@H](C=C)COCc2ccc(OC)cc2)CC[C@]2(C)OC(C)(C)[C@@H](c3ccccc3)N2C1=S`, the TGI was greater than 100 µM. `C[C@]12CCC(=O)C(O)=C1CC[C@@H]1C2CC[C@]2(C)Nc3c(cnn3-c3ccccc3)CC12` (stereo partly specified) was tested, and the TGI was greater than 100 µM. `C[C@]12C[C@@H](c3ccccc3)Nc3ccccc3N1C(c1ccccc1)=NO2` was tested, and the TGI was greater than 100 µM. With `N#CCCN(c1ccc(C=Nc2ccccc2Cl)cc1)S(=O)(=O)c1ccccc1` the TGI was greater than 100 µM. In the case of `COc1ccc(C(=O)O)c2c(=O)c3cccnc3[nH]c12`, the TGI is reported as greater than 100 µM. Work on `CN1C(=O)C(CC(=O)O)NC1=S` (stereo unspecified) yielded a TGI greater than 100 µM. For `O=C(O)CNS(=O)(=O)c1ccc(NC(=O)CI)cc1`, the TGI was greater than 100 µM. In the case of `C/C=C(\C)C(=O)OC1C(C)=C2C(C1OC(=O)CCCC)C(C)(OC(C)=O)CC(OC(=O)CCCC)C1(O)C2OC(=O)C1(C)O` (stereo unspecified), the TGI is reported as greater than 53.8 µM. `CC1(c2cccc(Cl)c2)CC(c2cccc(Cl)c2)=C(C#N)C(=C(C#N)C#N)N1` (stereo unspecified) was tested, and the TGI was 42.5 µM. `O=c1n(-c2ccccc2)c(=O)n2n1C1Cc3ccccc3C12` (stereo unspecified) was tested, and the TGI was greater than 100 µM. `COc1ccc2c(c1)Oc1cc(O)ccc1[C@@H]2c1ccccc1C(=O)NC(C)c1ccccc1` (stereo partly specified) showed a TGI of 29.6 µM. `CCOC(=O)/C(=C\c1cccs1)P(=O)(OCC)OCC` gave a TGI greater than 100 µM. `COC(=O)[C@@H](NC(=O)N(CCC#N)CCCN(C(=O)N[C@H](Cc1ccccc1)C(=O)OC)c1ccccc1)C(C)C` showed a TGI greater than 100 µM. `N=[N+]=CC(=O)CCC(NC(=O)C(CCC(=O)C=[N+]=N)NC(=O)CCC(N)C(=O)O)C(=O)O` (stereo unspecified) was tested, and the TGI was greater than 100 µM. With `N#Cc1cc(-c2nc3c(F)cccc3s2)ccc1N` the TGI was greater than 100 µM. Work on `O=P(CCCCP(=O)(c1ccccc1)c1ccccc1)(c1ccccc1)c1ccccc1.[Cl][Sn]([Cl])([c]1ccccc1)[c]1ccccc1` yielded a GI50 of 7.65 µM and a TGI of 21.2 µM. Compound `COC(=O)[C@]12CC=C3O[C@@H]4OC5(CCCCC5)O[C@@H]4C3[C@@H]1C(=O)CCC2=O` (stereo partly specified) has a TGI greater than 100 µM. For `CCCCCCCCCCCCOC1C(C(COC2OC(C3COC(C)(C)O3)C3OC(C)(C)OC23)NC(=O)NS(=O)(=O)c2ccccc2)OC2OC(C)(C)OC21` (stereo unspecified), the GI50 was 7.55 µM and the TGI was 22.9 µM. For `O=C1C2C=CC(C2)C(c2ccc(O)cc2)N1O` (stereo unspecified), the TGI was greater than 100 µM. `COC(=O)NN=C1C(C)(C)C(=O)C1(C)C` was tested, and the TGI was greater than 100 µM. With `Cc1ccc(/C=C2\CN(C)CC3C2=NN(c2ccccc2)C3c2ccc(C)cc2)cc1` (stereo unspecified) the TGI was greater than 100 µM. Compound `c1ccc2c(c1)cc1c3[nH]c4ccccc4c3ccn21` has a TGI greater than 10 µM. Compound `COc1ccc(S(=O)(=O)Nc2cc(/C=C\c3cc(OC)c(OC)c(OC)c3)ccc2OC)cc1` has a GI50 of 0.43 µM and a TGI greater than 100 µM. `c1ccc2cc3[s+]snc3cc2c1` gave a TGI greater than 100 µM. In the case of `Oc1[nH]c2c(Br)cccc2c1C1=Nc2ccccc2/C1=N/OCCN1CCCC1`, the GI50 is reported as 0.943 µM. `O=C(O)CCC(NC(=O)c1ccccc1)C(=O)O` (stereo unspecified) showed a TGI greater than 100 µM.

— PubChem BioAssay (NCI)
